From patent publication US9416178B2, “Jagged-binding agents and uses thereof” (OncoMed Pharmaceuticals, Inc., priority 2009, dated 2016)

Tests used:
[1] = system: PN17 pancreatic tumor cells; experiment: PN17 pancreatic tumor xenograft model; type: in vivo, NOD/SCID mice
Experimental: PN17 pancreatic tumor cells were injected subcutaneously into the flanks of NOD/SCID mice. 10,000 cells were injected per animal. Mice were monitored weekly and tumors were allowed to grow until they were approximately 145 mm^3. The mice were randomized into four treatment groups (n=10 mice/group) and treated with either control antibody (LZ-1), anti-Jagged 64M51, gemcitabine or a combination of 64M51 and gemcitabine. Gemcitabine was administered intraperitoneally at a dose of 5 mg/kg once a week and antibodies were administered intraperitoneally at a dose of 15 mg/kg twice a week.

human Jagged1 [2] = biological target: T1, human Jagged1 (Homo sapiens, UniProt P78504); experiment: FACS-based blocking of Notch2-Fc binding to Jagged-expressing cells; conditions: HEK293 cells expressing human Jagged1, FIG. 2
T1 construct: expression vectors encoding full-length cDNA for human Jagged1 or Jagged2; expressed in transfected cells; host or cells: HEK293
Experimental: (§1) To determine the effect of anti-Jagged antibodies on Jagged ligand binding to Notch receptors, a FACS-based assay was used. Human HEK293 cells were transfected with expression vectors encoding full-length cDNA for human Jagged1 or Jagged2, along with an expression vector encoding GFP. Transfected cells were incubated with recombinant Notch2-Fc fusion protein (containing the amino acids 375-608 of human Notch2 fused to the Fc region of human IgG1) in the presence or absence of 64M51, 64R7, 64R1B and 64M14 antibodies. Cells were washed in PBS and the binding of Notch2-Fc to transfected cells was detected by incubation with PE-conjugated anti-human Fc secondary antibody and analyzed by flow cytometry as described above.

human Jagged2 [3] = biological target: T2, human Jagged2 (Homo sapiens, UniProt Q9Y219, E501K); experiment: as above; conditions: HEK293 cells expressing human Jagged2, FIG. 2
T2 construct: expression vectors encoding full-length cDNA for human Jagged1 or Jagged2; expressed in transfected cells; host or cells: HEK293
Experimental: as §1

mouse Jagged2 = biological target: T3, mouse Jagged2 (Mus musculus, UniProt Q9QYE5); experiment: FACS binding to Jagged-transfected HEK293 cells; conditions: HEK293 cells expressing mouse Jagged2; FIG. 1
T3 construct: expressed in transfected cells; host or cells: HEK293
Experimental: (§2) FIG. 1. Identification of antibodies that bind to Jagged1 and/or Jagged2. Human HEK293 cells expressing human or mouse Jagged1 (Jag1) or Jagged2 (Jag2) and GFP were incubated with 64R1B, 64R7, 64M51 or control antibodies and phycoerythrin (PE) conjugated secondary antibody. Binding of antibodies to the Jagged-expressing cells was analyzed by flow cytometry. Shown are FACS analyses of antibody binding to the Jagged transfected cells. Binding is highlighted in each panel by the dark grey box insert.
(§3) Human HEK293 cells were co-transfected with expression vectors encoding (1) full-length cDNA for human Jagged1 or Jagged2 and (2) the transfection marker GFP. Twenty-four to forty-eight hours post-transfection, cells were collected in suspension and incubated on ice with anti-Jagged antibodies (10 μg/ml unless otherwise indicated) or control IgG to detect background antibody binding. The cells were washed in PBS and bound antibodies were detected with PE-conjugated anti-human Fc secondary antibodies. Labeled cells were analyzed by flow cytometry to identify anti-Jagged antibodies that specifically recognized cell surface expression of Jagged protein. Several monoclonal antibodies that recognized Jagged1 were identified and included antibodies 64M51, 64R7 and 64R1B.

mouse Jagged1 = biological target: T4, mouse Jagged1 (Mus musculus, UniProt Q9QXX0); experiment: FACS binding to Jagged-transfected HEK293 cells; conditions: HEK293 cells expressing mouse Jagged1; FIG. 1
T4 construct: expressed in transfected cells; host or cells: HEK293
Experimental: as §2, §3

[4] = system: human Jagged1-induced Notch2 activation; experiment: Notch-dependent luciferase reporter assay, plate-coated Jagged protein; type: cell-based; conditions: PC3 cells with Notch2 and 8xCBF-luciferase; coated Jagged 400 ng per well; antibody 40 to 0.039 μg/ml; FIG. 4A
Description: (§4) The ability of anti-Jagged antibodies to inhibit Notch activation was investigated using a Notch-dependent luciferase reporter assay. Recombinant fusion proteins containing the extracellular domain of either human Jagged1 or rat Jagged1 fused to human Fc were generated by standard recombinant methods. Fusion proteins containing the extracellular domain of either human Jagged2 or mouse Jagged2 fused to human Fc were generated by standard recombinant methods. Human PC3 cells were transfected with an expression vector encoding a full-length Notch2 receptor as well as plasmids encoding a Notch-dependent firefly luciferase reporter construct (8×CBF-luciferase) and a Renilla luciferase reporter (Promega, Madison, Wis.) as an internal control for transfection efficiency. Purified Jagged proteins were coated onto 96 well plates at 400 ng per well, and Notch2-expressing PC3-luc cells were added to the wells. 64M51, 64R7 and 64R1B antibodies were serially diluted 1:4 from 40 to 0.039 μg/ml, added to the appropriate wells and incubated overnight. Luciferase activity was determined 18 hours later using a dual luciferase assay kit (Promega, Madison, Wis.) with firefly luciferase activity normalized to Renilla luciferase activity.

[5] = system: rat Jagged1-induced Notch2 activation; experiment: as above; type: cell-based; conditions: PC3 cells with Notch2 and 8xCBF-luciferase; coated Jagged 400 ng per well; antibody 40 to 0.039 μg/ml; FIG. 4C
Description: as §4

[6] = system: mouse Jagged2-induced Notch2 activation; experiment: as above; type: cell-based; conditions: PC3 cells with Notch2 and 8xCBF-luciferase; coated Jagged 400 ng per well; antibody 40 to 0.039 μg/ml; FIG. 4D
Description: as §4

[7] = system: human Jagged2-induced Notch2 activation; experiment: as above; type: cell-based; conditions: PC3 cells with Notch2 and 8xCBF-luciferase; coated Jagged 400 ng per well; antibody 40 to 0.039 μg/ml; FIG. 4B
Description: as §4

PE13 breast tumor cells = experiment: PE13 breast tumor xenograft model; type: in vivo, NOD/SCID mice; conditions: FIG. 6
Experimental: PE13 breast tumor cells were injected subcutaneously into the mammary fat pads of NOD/SCID mice. 10,000 cells were injected per animal. Mice were monitored weekly and tumors were allowed to grow until they were approximately 170 mm^3. The mice were randomized into four treatment groups (n=10 mice/group) and treated with either control antibody (LZ-1, directed against bacterial lysozyme), anti-Jagged 64M51, taxol or a combination of 64M51 and taxol. Taxol was administered intraperitoneally at a dose of 7.5 mg/kg once a week and antibodies were administered intraperitoneally at a dose of 15 mg/kg twice a week.

human Jagged1 [8] = biological target: T1, human Jagged1; experiment: FACS binding to Jagged-transfected HEK293 cells; conditions: HEK293 cells expressing human Jagged1; antibody 10 μg/ml; FIG. 1
Experimental: as §3

human Jagged2 [9] = biological target: T2, human Jagged2; experiment: FACS binding to Jagged-transfected HEK293 cells; conditions: HEK293 cells expressing human Jagged2; antibody 10 μg/ml; FIG. 1
Experimental: as §3

T1 sequence (P78504 34-1218): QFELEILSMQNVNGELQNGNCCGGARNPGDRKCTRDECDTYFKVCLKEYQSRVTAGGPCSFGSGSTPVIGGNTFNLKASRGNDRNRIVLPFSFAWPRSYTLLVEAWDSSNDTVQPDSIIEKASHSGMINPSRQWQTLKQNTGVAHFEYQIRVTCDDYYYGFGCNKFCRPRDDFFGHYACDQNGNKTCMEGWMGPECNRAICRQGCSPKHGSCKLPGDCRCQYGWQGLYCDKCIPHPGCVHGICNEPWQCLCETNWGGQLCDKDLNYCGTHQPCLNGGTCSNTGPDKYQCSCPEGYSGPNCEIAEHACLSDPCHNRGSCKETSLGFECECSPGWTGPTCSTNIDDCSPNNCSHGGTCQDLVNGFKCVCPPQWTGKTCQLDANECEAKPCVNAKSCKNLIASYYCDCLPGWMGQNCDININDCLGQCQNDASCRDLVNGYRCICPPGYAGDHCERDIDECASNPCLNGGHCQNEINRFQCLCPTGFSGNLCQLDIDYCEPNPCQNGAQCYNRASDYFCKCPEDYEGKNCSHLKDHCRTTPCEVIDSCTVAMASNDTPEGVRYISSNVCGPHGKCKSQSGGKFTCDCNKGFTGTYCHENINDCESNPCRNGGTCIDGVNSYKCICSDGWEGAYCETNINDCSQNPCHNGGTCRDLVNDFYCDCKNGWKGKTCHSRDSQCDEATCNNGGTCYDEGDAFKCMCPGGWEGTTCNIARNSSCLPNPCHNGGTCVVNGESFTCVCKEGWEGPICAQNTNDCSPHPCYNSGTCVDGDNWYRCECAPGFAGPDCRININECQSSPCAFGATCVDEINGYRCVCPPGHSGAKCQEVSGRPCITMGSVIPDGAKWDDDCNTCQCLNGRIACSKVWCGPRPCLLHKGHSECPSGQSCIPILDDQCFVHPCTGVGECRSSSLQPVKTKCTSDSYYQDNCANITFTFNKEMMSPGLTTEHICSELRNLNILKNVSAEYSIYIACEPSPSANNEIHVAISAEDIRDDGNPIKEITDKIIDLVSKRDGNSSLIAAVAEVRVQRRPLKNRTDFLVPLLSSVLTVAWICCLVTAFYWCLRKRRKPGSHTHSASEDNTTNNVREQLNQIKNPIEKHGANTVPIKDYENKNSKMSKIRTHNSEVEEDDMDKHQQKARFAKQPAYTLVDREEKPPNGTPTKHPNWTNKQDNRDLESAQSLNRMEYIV
T2 sequence (Q9Y219 24-1238 E501K): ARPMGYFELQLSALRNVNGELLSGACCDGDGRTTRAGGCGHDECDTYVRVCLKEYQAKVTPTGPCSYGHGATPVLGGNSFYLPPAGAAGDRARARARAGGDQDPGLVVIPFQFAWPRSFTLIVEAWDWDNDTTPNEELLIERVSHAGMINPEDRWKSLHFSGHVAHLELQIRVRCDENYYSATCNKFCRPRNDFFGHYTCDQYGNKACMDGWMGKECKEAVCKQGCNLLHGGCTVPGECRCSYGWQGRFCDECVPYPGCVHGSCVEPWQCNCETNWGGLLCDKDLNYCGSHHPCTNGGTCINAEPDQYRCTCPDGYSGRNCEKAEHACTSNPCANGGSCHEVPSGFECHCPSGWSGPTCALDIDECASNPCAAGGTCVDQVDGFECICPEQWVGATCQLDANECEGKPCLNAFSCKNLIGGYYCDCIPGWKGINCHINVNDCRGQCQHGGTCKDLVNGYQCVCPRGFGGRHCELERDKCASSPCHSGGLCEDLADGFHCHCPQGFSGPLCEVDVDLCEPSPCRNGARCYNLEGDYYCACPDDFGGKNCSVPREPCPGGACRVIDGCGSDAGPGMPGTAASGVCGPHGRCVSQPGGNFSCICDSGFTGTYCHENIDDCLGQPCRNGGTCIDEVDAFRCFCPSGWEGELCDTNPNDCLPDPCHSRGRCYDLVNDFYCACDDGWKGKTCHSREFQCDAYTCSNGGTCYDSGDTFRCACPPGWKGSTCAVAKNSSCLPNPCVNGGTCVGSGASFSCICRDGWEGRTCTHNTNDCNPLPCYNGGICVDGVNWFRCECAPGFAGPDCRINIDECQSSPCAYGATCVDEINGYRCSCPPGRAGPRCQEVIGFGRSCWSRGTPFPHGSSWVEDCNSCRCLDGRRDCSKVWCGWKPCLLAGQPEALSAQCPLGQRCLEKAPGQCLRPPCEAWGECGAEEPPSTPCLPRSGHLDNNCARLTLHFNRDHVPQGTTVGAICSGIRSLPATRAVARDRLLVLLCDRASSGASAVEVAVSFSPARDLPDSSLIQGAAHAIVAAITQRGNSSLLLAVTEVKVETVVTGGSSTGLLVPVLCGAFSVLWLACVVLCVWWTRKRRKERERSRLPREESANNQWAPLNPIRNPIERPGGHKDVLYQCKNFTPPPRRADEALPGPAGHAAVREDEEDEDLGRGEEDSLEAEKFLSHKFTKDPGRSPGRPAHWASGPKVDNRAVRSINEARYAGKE
T3 sequence (Q9QYE5 24-1247): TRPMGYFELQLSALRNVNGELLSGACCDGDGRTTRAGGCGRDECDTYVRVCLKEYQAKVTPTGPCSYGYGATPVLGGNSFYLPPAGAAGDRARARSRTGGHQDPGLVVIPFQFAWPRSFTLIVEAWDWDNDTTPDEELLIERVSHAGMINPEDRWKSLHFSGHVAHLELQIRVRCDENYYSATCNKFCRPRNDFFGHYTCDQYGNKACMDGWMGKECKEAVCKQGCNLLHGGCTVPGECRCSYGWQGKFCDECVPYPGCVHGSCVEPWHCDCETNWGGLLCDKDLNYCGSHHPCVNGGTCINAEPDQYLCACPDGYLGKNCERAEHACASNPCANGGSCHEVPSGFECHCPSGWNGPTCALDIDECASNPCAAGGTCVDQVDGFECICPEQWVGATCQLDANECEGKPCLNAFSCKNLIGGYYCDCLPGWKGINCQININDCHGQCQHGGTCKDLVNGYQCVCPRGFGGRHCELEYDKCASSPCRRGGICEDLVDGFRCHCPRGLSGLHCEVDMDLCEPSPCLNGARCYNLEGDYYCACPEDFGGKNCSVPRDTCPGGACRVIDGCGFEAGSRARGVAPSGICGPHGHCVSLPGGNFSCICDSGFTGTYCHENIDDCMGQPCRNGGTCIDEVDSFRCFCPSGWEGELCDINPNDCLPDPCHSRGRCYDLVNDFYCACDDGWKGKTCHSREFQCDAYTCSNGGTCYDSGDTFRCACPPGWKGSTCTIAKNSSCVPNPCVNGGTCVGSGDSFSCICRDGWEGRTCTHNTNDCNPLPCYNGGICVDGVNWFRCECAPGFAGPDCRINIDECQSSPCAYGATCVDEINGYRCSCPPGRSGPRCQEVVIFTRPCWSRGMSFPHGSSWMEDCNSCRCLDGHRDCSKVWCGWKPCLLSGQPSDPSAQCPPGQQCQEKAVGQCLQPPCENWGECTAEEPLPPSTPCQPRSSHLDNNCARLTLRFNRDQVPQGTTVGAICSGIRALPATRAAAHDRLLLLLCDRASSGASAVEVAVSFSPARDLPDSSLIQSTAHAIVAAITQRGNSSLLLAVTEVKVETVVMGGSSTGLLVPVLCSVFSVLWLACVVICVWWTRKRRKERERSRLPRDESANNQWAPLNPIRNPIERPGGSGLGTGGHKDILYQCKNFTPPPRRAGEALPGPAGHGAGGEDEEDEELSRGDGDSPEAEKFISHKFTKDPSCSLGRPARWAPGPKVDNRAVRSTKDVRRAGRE
T4 sequence (Q9QXX0 34-1218): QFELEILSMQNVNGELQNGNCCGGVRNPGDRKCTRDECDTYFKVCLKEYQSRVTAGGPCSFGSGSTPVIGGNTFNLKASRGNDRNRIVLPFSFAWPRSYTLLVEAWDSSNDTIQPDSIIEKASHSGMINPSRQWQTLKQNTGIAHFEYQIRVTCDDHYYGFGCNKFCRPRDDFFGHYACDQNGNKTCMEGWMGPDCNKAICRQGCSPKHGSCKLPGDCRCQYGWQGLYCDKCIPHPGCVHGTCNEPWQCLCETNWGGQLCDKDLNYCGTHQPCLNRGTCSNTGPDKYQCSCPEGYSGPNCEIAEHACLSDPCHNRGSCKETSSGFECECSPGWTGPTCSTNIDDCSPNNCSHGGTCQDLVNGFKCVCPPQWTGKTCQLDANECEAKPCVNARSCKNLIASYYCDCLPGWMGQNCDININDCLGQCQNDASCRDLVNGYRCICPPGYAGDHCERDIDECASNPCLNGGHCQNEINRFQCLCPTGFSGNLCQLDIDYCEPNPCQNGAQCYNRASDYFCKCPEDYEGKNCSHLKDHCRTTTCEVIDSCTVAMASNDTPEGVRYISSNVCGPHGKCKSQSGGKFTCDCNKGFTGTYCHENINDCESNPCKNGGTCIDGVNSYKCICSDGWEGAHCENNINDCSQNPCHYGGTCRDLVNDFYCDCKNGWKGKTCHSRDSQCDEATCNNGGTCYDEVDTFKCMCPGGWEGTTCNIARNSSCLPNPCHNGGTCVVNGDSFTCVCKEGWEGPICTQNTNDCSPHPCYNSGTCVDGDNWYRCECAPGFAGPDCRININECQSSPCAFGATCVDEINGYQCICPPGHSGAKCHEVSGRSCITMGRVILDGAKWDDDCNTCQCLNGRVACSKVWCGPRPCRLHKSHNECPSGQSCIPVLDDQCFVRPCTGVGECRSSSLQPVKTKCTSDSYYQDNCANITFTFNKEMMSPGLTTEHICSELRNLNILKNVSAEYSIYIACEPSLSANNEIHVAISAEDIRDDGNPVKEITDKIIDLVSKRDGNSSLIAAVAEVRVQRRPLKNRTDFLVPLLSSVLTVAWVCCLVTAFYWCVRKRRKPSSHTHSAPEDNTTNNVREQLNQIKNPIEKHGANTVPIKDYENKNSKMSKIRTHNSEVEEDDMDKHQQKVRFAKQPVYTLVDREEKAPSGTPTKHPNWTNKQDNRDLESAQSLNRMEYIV

B1: 64M51: mouse hybridoma monoclonal anti-Jagged antibody, ATCC PTA-10468; heavy chain SEQ ID NO:1, light chain SEQ ID NO:3 (antibody)
heavy: MECSWVILFLLSGTAGVHCQVQLKQSGAELVRPGTSVKLSCKTSGYIFTSYWIHWVKQRSGQGLEWIARIYPGIGSTYYNEKFKDKATLTADKSSSTAYMQLSSLKSEDSAVYFCAKNGGFFDYWGQGTTLTVSSAKTTPPSVYPLAPGSAAQTNSMVTLGCLVKGYFPEPVTVTWNSGSLSSGVHTFPAVLQSDLYTLSSSVTVPSSTWPSQTVTCNVAHPASSTKVDKKIVPRDCGCKPCICTVPEVSSVFIFPPKPKDVLTITLTPKVTCVVVDISKDDPEVQFSWFVDDVEVHTAQTKPREEQFNSTFRSVSELPIMHQDWLNGKEFKCRVNSAAFPAPIEKTISKTKGRPKAPQVYTIPPPKEQMAKDKVSLTCMITDFFPEDITVEWQWNGQPAENYKNTQPIMDTDGSYFVYSKLNVQKSNWEAGNTFTCSVLHEGLHNHHTEKSLSHSPGK
light: MVLMLLLLWVPGSTGDIVLTQSPASLAVSLGQRATISCRASESVDSYGNSFMHWYQQKPGQPPKLLIYRASNLESGIPARFSGSGSRTDFTLTINPVEADDVATYYCQQSNEDPWTFGGGTKLEIKRADAAPTVSIFPPSSEQLTSGGASVVCFLNNFYPKDINVKWKIDGSERQNGVLNSWTDQDSKDSTYSMSSTLTLTKDEYERHNSYTCEATHKTSTSPIVKSFNRNEC
modifications: 64M51 Heavy chain; 64M51 Light chain
tumor growth, single agent ([1]; antibody 15 mg/kg twice a week or gemcitabine 5 mg/kg once a week, intraperitoneally, FIG. 7): no significant reduction in tumor growth
tumor growth, antibody in combination with gemcitabine ([1]; antibody 15 mg/kg twice a week plus gemcitabine 5 mg/kg once a week, FIG. 7B): prolonged reduction in tumor growth
blocking of Notch2-Fc binding to Jagged1-expressing cells (human Jagged1 [2]): blocked
blocking of Notch2-Fc binding to Jagged2-expressing cells (human Jagged2 [3]): blocked
binding to mouse Jagged2 (FACS) (mouse Jagged2): bound
binding to mouse Jagged1 (FACS) (mouse Jagged1): bound
inhibition of human Jagged1-induced Notch2 activation [4]: did not inhibit
inhibition of rat Jagged1-induced Notch2 activation [5]: did not inhibit
inhibition of mouse Jagged2-induced Notch2 activation [6]: inhibited mouse Jagged2-induced Notch2 activations, but at a higher concentration of antibody than 64R7
inhibition of human Jagged2-induced Notch2 activation [7]: partial inhibition
tumor growth, single agent relative to control antibody (PE13 breast tumor cells; antibody 15 mg/kg intraperitoneally twice a week): reduce tumor growth
tumor growth, antibody in combination with taxol (PE13 breast tumor cells; antibody 15 mg/kg twice a week plus taxol 7.5 mg/kg once a week, vs either agent alone): reduced tumor growth to a level greater that either agent alone
binding to human Jagged1 (FACS) (human Jagged1 [8]): bound
binding to human Jagged2 (FACS) (human Jagged2 [9]): bound
